PubChem BioAssay AID488969 (Vanderbilt High Throughput Screening Facility, 2010)
The full ranking holds about 110,000 compounds; the median of “z-score” is about -0.1, and the highest 2% start at about 2. The list shows a part of the results. The source made the active and inactive calls.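 How the source made its calls: active means z-score in the third read window above 3 or below -3; inactive means the rest.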

Target: Metabotropic glutamate receptor 8 (Rattus norvegicus) (UniProt P70579)
Experiment: mGluR8 Gi/Go-coupled signaling modulation – cell-based, rat, thallium flux, HTS, primary screen (AID 488969)
Settings: HEK293 rat mGluR8, GIRK (G protein-gated inwardly rectifying potassium channel) thallium flux, FluoZin2; at 10 µM; stronger effect = higher value; submaximal glutamate (EC20) added with thallium

Sequence of UniProt P70579 (P70579 whole entry, looked up): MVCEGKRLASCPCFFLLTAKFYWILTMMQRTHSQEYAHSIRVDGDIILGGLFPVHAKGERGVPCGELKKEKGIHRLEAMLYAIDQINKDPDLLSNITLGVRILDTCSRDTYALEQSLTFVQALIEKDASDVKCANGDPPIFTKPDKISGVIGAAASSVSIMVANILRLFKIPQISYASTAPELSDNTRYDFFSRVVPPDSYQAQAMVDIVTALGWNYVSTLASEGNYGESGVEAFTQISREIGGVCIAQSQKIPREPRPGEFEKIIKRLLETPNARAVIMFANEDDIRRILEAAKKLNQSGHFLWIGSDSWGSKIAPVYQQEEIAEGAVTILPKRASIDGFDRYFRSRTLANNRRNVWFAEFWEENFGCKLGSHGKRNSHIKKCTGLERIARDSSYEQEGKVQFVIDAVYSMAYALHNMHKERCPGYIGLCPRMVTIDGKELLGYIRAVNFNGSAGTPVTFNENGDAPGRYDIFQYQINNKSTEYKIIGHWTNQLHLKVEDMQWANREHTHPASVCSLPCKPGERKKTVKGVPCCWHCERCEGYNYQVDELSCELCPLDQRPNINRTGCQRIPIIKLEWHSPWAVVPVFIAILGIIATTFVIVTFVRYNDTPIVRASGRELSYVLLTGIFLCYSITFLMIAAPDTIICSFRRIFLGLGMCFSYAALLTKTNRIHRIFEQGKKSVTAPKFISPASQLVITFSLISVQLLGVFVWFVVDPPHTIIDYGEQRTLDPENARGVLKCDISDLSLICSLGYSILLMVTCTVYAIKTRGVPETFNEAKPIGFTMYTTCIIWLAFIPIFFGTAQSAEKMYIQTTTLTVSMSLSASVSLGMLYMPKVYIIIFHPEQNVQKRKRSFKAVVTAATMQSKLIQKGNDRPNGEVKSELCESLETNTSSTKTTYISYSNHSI

| Compound | z-score |
| --- | --- |
| Cc1cc(C(=O)OC2CCOC2=O)c2ccccc2n1 (stereo unspecified) | 0.209 |
| Cc1ccc(-n2ncc3c(=O)n(CC(=O)NC4CCCCC4)cnc32)cc1C | 0.456 |
| COc1cc(Cl)cc(C2NC(=O)NC(C)=C2C(=O)NCc2ccccc2)c1O (stereo unspecified) | -0.322 |
| C=CCNC(=O)c1cc2c(C(F)(F)F)nn(C)c2s1 | -0.241 |
| FC(F)(F)c1cccc(Oc2ccc3c(C(F)(F)F)cc(C(F)(F)F)nc3n2)c1 | 0.182 |
| COc1ccc(-n2c(C)nc3cc(C(=O)NCCN4CCOCC4)ccc32)cc1 | -0.0514 |
| CCCn1nc(C(=O)Nc2ccc3nc(C)sc3c2)c2ccccc2c1=O | -0.783 |
| CC(=O)c1cnc(Nc2nc(C)c3cc(C)ccc3n2)nc1C | 0.124 |
| COc1ccc(NC(=O)N2CCC(n3nnc4cc(C)ccc43)CC2)cc1 | 0.307 |
| CC(C)c1ccc(N2C(=O)CC(Sc3ncn[nH]3)C2=O)cc1 (stereo unspecified) | 0.234 |
| O=C(Nc1nnc(-c2ccco2)o1)c1ccc2ccccc2c1 | 2.95 |
| O=C(CSc1nnc(-c2ccccc2F)n1CCc1ccccc1)Nc1ccc2[nH]c(=O)[nH]c2c1 | 0.388 |
| Cc1cc(C)nc(NC(=O)NS(=O)(=O)Nc2ccc(Br)cn2)n1 | -0.0493 |
| O=C(CSc1nnc(Cc2ccccc2)o1)N1CCOCC1 | -0.0933 |
| CC(C)(C)NC(=O)c1ccnc(C(C)(C)C)c1 | -0.0801 |
| CCN(CC)S(=O)(=O)c1ccc(Cl)c(NC(=O)CSc2nnc(-c3cccs3)o2)c1 | -0.359 |
| O=C(NC1CCCCC1)c1cc([N+](=O)[O-])ccc1N1CCOCC1 | 0.0241 |
| O=C(O)C1Nc2c(C(=O)N3CCOCC3)cccc2C2C=CCC12 (stereo unspecified) | -0.486 |
| C/C(=C\C(=O)c1cccnc1)Nc1ccc(O)cc1 | -0.0452 |
| O=C(Nc1ccc(F)cc1)c1cccnc1NCCc1ccccc1 | -0.0811 |
| CC(/C=N/n1cnnc1)=C\c1ccccc1 | -0.198 |
| Cc1ccc(CC(=O)NCc2ccc3c(c2)OCO3)cc1 | 0.445 |
| CCN(CC)C(=O)CSc1nc(C)cc(-c2cccs2)c1C#N | -0.163 |
| CC(C)(C)NC(=O)CN1CCC(O)(c2ccc3c(c2)OCO3)CC1 | -0.45 |

| Compound | z-score |
| --- | --- |
| C=CCOc1c(Br)cc(CNn2nnnc2N)cc1OC | 0.177 |
| Cc1cc2cc(CN(Cc3ccc4c(c3)OCO4)C(=O)c3cnccn3)c3nnnn3c2cc1C | -0.159 |
| CC1(C)CC(CC(=O)NC(=S)Nc2ccc([N+](=O)[O-])cc2)C(=O)O1 (stereo unspecified) | 0.331 |
| CC(C)N1CCC(=NNc2ccc(S(=O)(=O)N3CCOCC3)cc2[N+](=O)[O-])CC1 | 0.0912 |
| Cc1cccc(NC2SC(=O)N(CC(=O)O)C2=O)c1 (stereo unspecified) | -0.0915 |
| CC1=CC(C)(C)NC(=S)N1c1cccc2ccccc12 | -0.0628 |
| COc1nc(N=C(N)N)nc2c(C)cccc12 | -0.132 |
| COc1ccc(C(=O)N2CC3(C)CC2CC(C)(C)C3)cc1OC (stereo unspecified) | -0.252 |
| COC(=O)C1=C(C)Nc2ncnn2C1c1ccccn1 (stereo unspecified) | -0.0706 |
| COC(=O)C1=C(C)N=c2s/c(=C3\C(=O)Nc4ccccc43)c(=O)n2C1c1ccccc1 (stereo unspecified) | 0.131 |
| Cc1ccc(CSc2ncnc3c2cnn3Cc2ccccc2)cc1 | -0.449 |
| CC(C(=O)O)N1C(=O)/C(=C/C=C/c2ccco2)SC1=S (stereo unspecified) | -0.305 |
| CCOc1ccc(C(=O)N2CCSC2=S)cc1 | -0.052 |
| O=C(CN1C2CCCC1CC(NC(=O)c1ccco1)C2)Nc1ccccc1 (stereo unspecified) | -0.992 |
| COc1cccc(-n2c(SCC(=O)c3c[nH]c4ccccc34)nc3ccccc3c2=O)c1 | -0.0633 |
| O=S(=O)(c1ccc(Br)s1)N1CCN(Cc2ccc3c(c2)OCO3)CC1 | 0.231 |
| CN1CCN(c2ccc([N+](=O)[O-])cc2S(=O)(=O)N2CCOCC2)CC1 | 0.0267 |
| O=C(Cc1cc(=O)[nH]c(=O)[nH]1)NCC1CCCO1 (stereo unspecified) | 0.0579 |
| C=CCOn1c(=O)c(-c2cccs2)[n+]([O-])c2ccccc21 | active: 3.49 |
| Cc1cccc(N=C2NC(=O)CS2)c1C | -0.967 |
| CCCC1=[N+](CC(=O)c2ccc(C)cc2)CCn2cccc21 | -0.333 |
| CN(CCc1ccccn1)S(=O)(=O)c1ccc2c3c(cccc13)C(=O)N2 | 1.84 |
| Cc1ccc2oc(-c3cccc(NC(=S)NC(=O)/C=C/c4ccco4)c3)nc2c1 | -0.494 |
| O=C(c1cccnc1)N(c1cc2sc(=O)oc2c2ccccc12)S(=O)(=O)c1ccccc1 | -0.0775 |

| Compound | z-score |
| --- | --- |
| CC/C(=N\NC(=O)CNC(=O)/C=C/c1ccco1)c1ccccc1 | -0.106 |
| O=C(Cc1ncc(C(F)(F)F)cc1Cl)N1CCN(c2cccc(Cl)c2)CC1 | -0.497 |
| O=C(Nc1nc(-c2ccccc2)cs1)c1cccc([N+](=O)[O-])c1 | -0.264 |
| CCN1CCN(C(=O)c2cn(CC)c3ccc(S(=O)(=O)N(C)C)cc3c2=O)CC1 | 0.0639 |
| Cc1ccccc1NS(=O)(=O)c1ccc(OCC(=O)N2CCCC2)cc1 | 0.78 |
| COc1ccc(C2CC(c3ccccc3)=NN2S(=O)(=O)c2ccccc2)c(OC)c1 (stereo unspecified) | -0.152 |
| CN(C)c1ccc(N=Nc2ccccc2C(=O)OCC(=O)N2CCCC2)cc1 | -0.116 |
| Cc1ccccc1-c1nc2sc3c(c2c(=O)o1)CCC3 | -0.265 |
| Cc1ccc(N2C(=O)CC(Sc3nc4ccccc4o3)C2=O)cc1Cl (stereo unspecified) | 0.163 |
| Cc1ccccc1NC(=O)CSc1[nH]c(=O)cc(C)c1C#N | -0.0106 |
| CCOC(=O)c1c(C)c(C(=O)Nc2ccc3c(c2)OCO3)c(C)n1C | -0.165 |
| CCOCC(O)CSCc1ccc(Cl)cc1 (stereo unspecified) | -0.407 |
| Cn1cccc1Cc1nnc(SCC(=O)Nc2nc3ccccc3s2)n1CCc1ccccc1 | -0.371 |
| C=CCSc1nnc(-c2c[nH]c3ccccc23)n1CC | 0.312 |
| O=C(CSCC(=O)Nc1ccc2ccccc2c1)NCc1ccccc1 | 0.1 |
| Cc1cc(C)n(-c2nnc(C)n2NC(=O)c2cccc(Cl)c2)n1 | 0.0281 |
| COc1cc2nc(-c3ccccc3)nc(N3CCCC3)c2cc1OC | 0.413 |
| COC(=O)c1ccc(C(=O)OC)c(NC(=O)Nc2ccc3c(c2)OCO3)c1 | 0.0202 |
| Cc1cccc(OCCCC(=O)NC(C)C)c1 | -0.39 |
| C=C(C)CSc1nnc(-c2cc(OC)c(OC)c(OC)c2)n1N | 0.871 |
| N#Cc1ccccc1NC(=O)c1ccc2c(Cl)c3c(nc2c1)CCCC3 | 0.383 |
| CCC(C(=O)Nc1cc(C)on1)c1ccccc1 (stereo unspecified) | 0.091 |
| O=C(CC1C(=O)NCCN1C(=S)Nc1ccccc1)Nc1ccc2c(c1)OCCO2 (stereo unspecified) | 0.143 |
